# Data published in the antibiotic and cytotoxicity screens of Wong et al. (2023).
# Some of the results follow.
# Key:
# HSkMC = human skeletal muscle cells; assay: cytotoxicity call (relative viability < 0.9); conditions: 10 µM
# HepG2 = assay: cytotoxicity call (relative viability < 0.9); conditions: 10 µM
# S. aureus RN4220 = assay: growth inhibition call (relative growth <= 0.2); conditions: 50 µM
Compound,cytotoxicity call (HSkMC),cytotoxicity call (HepG2),growth inhibition call (S. aureus RN4220)
COc1ccc(S(=O)(=O)Nc2cccc3c2O[C@H](CN(C)S(=O)(=O)c2c(C)noc2C)[C@H](C)CN([C@@H](C)CO)C3=O)cc1,inactive,inactive,inactive
O=C(O)c1cc2c([nH]c1=O)CCC[C@@H]2O,inactive,inactive,inactive
CS(=O)(=O)N1CCC(CN)CC1,inactive,inactive,inactive
O=C(CCCc1ccccc1)OCC(COC(=O)CCCc1ccccc1)OC(=O)CCCc1ccccc1,inactive,inactive,inactive
Cn1cnc(S(=O)(=O)N[C@H]2C=C[C@H](CC(=O)N3CCN(c4ccccc4)CC3)O[C@@H]2CO)c1,inactive,inactive,inactive
COCCN1CCCn2c(nc(CNS(C)(=O)=O)cc2=O)C1,inactive,inactive,inactive
C[C@H](CO)N1C[C@H](C)[C@H](CN(C)S(=O)(=O)c2ccc(Cl)cc2)OCCCC[C@H](C)Oc2ccc(NC(=O)Nc3ccc(F)cc3)cc2C1=O,inactive,inactive,inactive
Cc1noc(C)c1S(=O)(=O)Nc1ccc2c(c1)C(=O)N([C@@H](C)CO)C[C@H](C)[C@@H](CN(C)C(=O)Nc1ccc(C(F)(F)F)cc1)OCCCC[C@H](C)O2,inactive,active,inactive
COc1ccc(NC(=O)N(C)C[C@H]2OCCCC[C@H](C)Oc3ccc(NC(=O)Nc4ccc(C(F)(F)F)cc4)cc3C(=O)N([C@@H](C)CO)C[C@@H]2C)cc1,inactive,inactive,inactive
O=C(C[C@@H]1C=C[C@@H](NC(=O)CN2CCOCC2)[C@H](CO)O1)NCc1cccc(F)c1,inactive,inactive,inactive
COCC(=O)N1C[C@@H]2OCCN(c3ccc(C)nn3)[C@H]2C1,inactive,inactive,inactive
C[C@@H]1CCCCO[C@H](CN(C)C(=O)Nc2ccc3c(c2)OCO3)[C@@H](C)CN([C@@H](C)CO)C(=O)c2cc(NC(=O)c3ccncc3)ccc2O1,inactive,inactive,inactive
C[C@@H]1CN([C@H](C)CO)S(=O)(=O)c2ccc(-c3ccncc3)cc2O[C@@H]1CN(C)S(=O)(=O)c1ccccc1F,inactive,inactive,inactive
CC(=O)CCC=C(C)CCC=C(C)CCC=C(C)CCC=C(C)C,inactive,inactive,inactive
C[C@@H]1CN([C@@H](C)CO)C(=O)c2cccc(NC(=O)Nc3ccc(C(F)(F)F)cc3)c2O[C@@H]1CN(C)C(=O)NC1CCCCC1,inactive,inactive,inactive
C[C@H]1CN([C@@H](C)CO)C(=O)c2cc(NC(=O)CCCN(C)C)ccc2O[C@@H]1CN(C)Cc1ccc2c(c1)OCO2,inactive,inactive,inactive
CC(=O)N[C@@H](CC(C)C)C(=O)O,inactive,inactive,inactive
O=C(Nc1ccc2c(c1)[C@@H]1C[C@H](CC(=O)N3CCc4ccccc4C3)O[C@@H](CO)[C@@H]1O2)C1CCOCC1,inactive,inactive,inactive
COCc1cn(CC[C@@H]2CC[C@H](NC(=O)CCN3CCCCC3)[C@H](CO)O2)nn1,inactive,inactive,inactive
C[C@@H]1CN([C@H](C)CO)S(=O)(=O)c2ccc(-c3cncnc3)cc2O[C@@H]1CN(C)C(=O)Cc1cccnc1,inactive,inactive,inactive
C[C@@H]1CN([C@@H](C)CO)C(=O)c2cccc(NC(=O)c3nc4ccccc4s3)c2O[C@@H]1CN(C)C(=O)Nc1cccc2ccccc12,inactive,inactive,inactive
C[C@@H]1CN([C@@H](C)CO)S(=O)(=O)c2ccc(-c3cccnc3)cc2O[C@@H]1CN(C)CC1CCOCC1,inactive,inactive,inactive
O=C(C[C@H]1NCCNC1=O)Nc1ccccc1,inactive,inactive,inactive
CNC[C@@H]1OCCCC[C@@H](C)Oc2ccc(NC(=O)CCCN(C)C)cc2C(=O)N([C@H](C)CO)C[C@@H]1C,inactive,inactive,inactive
COc1ccc(S(=O)(=O)Nc2cccc3c2O[C@@H](CN(C)S(=O)(=O)c2cn(C)cn2)[C@H](C)CN([C@H](C)CO)C3=O)cc1,inactive,inactive,inactive
Cc1noc(C)c1NC(=O)N(C)C[C@H]1Oc2ncc(C#CCN(C)C)cc2C(=O)N([C@@H](C)CO)C[C@H]1C,inactive,inactive,inactive
CO[C@H]1CN(C)C(=O)c2ccc(NS(=O)(=O)c3cn(C)cn3)cc2OC[C@H](C)N(CCC(F)(F)F)C[C@H]1C,inactive,inactive,inactive
